Laboratory results taken from the RNAGym collection of RNA variant scans (doi:10.7554/elife.90254).
Read counts are not given, so values of variants with three or more changes are uncertain.

B1: LINE1-full (parent)
chain: UACGUAGGUGGUUUUCCCCUGAUAGUGCUAAGGGGGCCUGGAAGUUUGGACUGGGCAGAGCUCAACACAGCGUGGCAAAGUGGCUGUGGCUAGACUGCCUCUCUGGAUUCCUCGUCACUCAGCAGGGCAUCUCUGAGAGAAAUGCC

Variants of: B1
Test: self-cleavage, relative activity (ratio to wild type); higher = more cleavage; in vitro, sequencing; the parent is a self-cleaving ribozyme

Variant	self-cleavage
UACGUAGGUGGUUUUCCCCUGAUAGUGCUAAGGGGGCCUGGAAGUUUGGACUGGGCAGAGCUCAACGCAGCGUGUCAAAGUGGCGGUGGCUGGACUGCCUCUCUGGAUUCCUCGUCACUCAGCAGGGCAUCUCUGAGAGAGAUGCC [A67G G75U U85G A92G A141G]	0
UACGUAGGUGGUUUUCCCCUGAUAGUGCUAAGGGGGCCUGGAAGUUUGGACUGGGCAGAGCUCAACGCAGCGUGGCAAAGUGACUGUGGCUAGACUGCCUCUCUGGUUUCCUCGUCACUCAGCAGGGCAUCUCUGAGAGAAAUGCC [A67G G83A A107U]	0.37
UACGUAGGUGGUUUUCCCCUGAUAGUGCUAAGGGGGCCUGGAAGUUUGGACUGGGCAGAGCUCAACGCAGCGUGGCAAAGUGACUGUGGCUAGACUGCCUCUCUGGAUUCCUCGUCACUCAGCAGGGCAUCUCUGUGAGAAAUGCC [A67G G83A A136U]	0.25
UACGUAGGUGGUUUUCCCCUGAUAGUGCUAAGGGGGCCUGGAAGUUUGGACUGGGCAGAGCUCAACGCAGCGUGGCAAAGUGGCUGUGGCUAGACUGCCUCUCUGGAUUCCUCAUCACUCAGCGGGGCAUCUCUGAGAGAAGUGCC [A67G G114A A124G A142G]	0.36
UACGUAGGUGGUUUUCCCCUGAUAGUGCUAAGGGGGCCUGGAAGUUUGGACUGGGCAGAGCUCAACGCAGCGUGGCAAAGAGGCUGUGGCUAGACUGCCUCUCUGGAUUCCUCGUCACUCAGCAGGGCAUCCCUGAGAGAAGUGCC [A67G U81A U132C A142G]	0.82
UACGUAGGUGGUUUUCCCCUGAUAGUGCUAAGGGGGCCUGGAAGUUUGGACUGGGCAGAGCUCAACGCAGCGUGGCAAAGCGGCUGUGGCUAGACUGCCUCUCUGGAUUCCUCGUCACUCAGCAGGGCAUCUUUGAGAGAAGUGCC [A67G U81C C133U A142G]	0.46
UACGUAGGUGGUUUUCCCCUGAUAGUGCUAAGGGGGCCUGGAAGUUUGGACUGGGCAGAGCUCAACGCAGCGUGGCAAAGUGGCCGUGGCUAGACUGCCUCUCUGGAUUCCUCGUCACCCAGCAGGGCAUCUCUGAGAGGAAUGCC [A67G U85C U119C A140G]	0
UACGUAGGUGGUUUUCCCCUGAUAGUGCUAAGGGGGCCUGGAAGUUUGGACUGGGCAGAGCUCAACGCAGCGUGGCAAAGUGGCUGUGGCUAGACUGCCACUCUGGAUUCCUCGUCACUCAGCAGGGCAUCUCUGAGAGAAUCGCC [A67G U100A A142U U143C]	0.45
UACGUAGGUGGUUUUCCCCUGAUAGUGCUAAGGGGGCCUGGAAGUUUGGACUGGGCAGAGCUCAACGCAGCGUGGCAAAGUGGCUGUGGCUAGACUGCCUCUCUGGACUCCUCGUCACUCAGCAGGGCACCUCUGAGAGAAAUGCC [A67G U108C U130C]	0.51
UACGUAGGUGGUUUUCCCCUGAUAGUGCUAAGGGGGCCUGGAAGUUUGGACUGGGCAGAGCUCAACGCAGCGUGGCAAAGUGGCUGUGGCUAGACUGCCUCUCUGGAUUCCCCGUCACUCAGCAGGGCAUCUCAGAGAGAAAUGCC [A67G U112C U134A]	0
UACGUAGGUGGUUUUCCCCUGAUAGUGCUAAGGGGGCCUGGAAGUUUGGACUGGGCAGAGCUCAACGCAGCGUGGCAAAGUGGCUGUGGCUAGACUGCCUCUCUGGAUUCCUCGCCACUCAGCAGGGCAUCUCUGAGAGGAAUGCC [A67G U115C A140G]	0.48
UACGUAGGUGGUUUUCCCCUGAUAGUGCUAAGGGGGCCUGGAAGUUUGGACUGGGCAGAGCUCAACGCAGCGUGGCAAAGUGGCUGUGGCUAGACUGCCUCUCUGGAUUCCUCGCCACUCAGCAGAGCAUCUCUGAGAGAAAUGCC [A67G U115C G126A]	0.81
UACGUAGGUGGUUUUCCCCUGAUAGUGCUAAGGGGGCCUGGAAGUUUGGACUGGGCAGAGCUCAACGCAGCGUGGCAAAGUGGCUGUGGCUAGACUGCCUCUCUGGAUUCCUCGUCACACAGCAGGGCAUCCCCGAGAGAAAUGCC [A67G U119A U132C U134C]	0.7
UACGUAGGUGGUUUUCCCCUGAUAGUGCUAAGGGGGCCUGGAAGUUUGGACUGGGCAGAGCUCAACGCAGCGUGGCAAAGUGGCUGUGGCUAGACUGCCUCUCUGGAUUCCUCGUCACUCAGCAGGGCAACUCUGAGAGAGAUGCC [A67G U130A A141G]	0.31
UACGUAGGUGGUUUUCCCCUGAUAGUGCUAAGGGGGCCUGGAAGUUUGGACUGGGCAGAGCUCAACGCAGCGUGGCAAAGUGGCUGUGGCUAGACUGCCUCUCUGGAUUCCUCGUCACUCAGCAGGGCAUCACUGAGAGAACUGCC [A67G U132A A142C]	0
UACGUAGGUGGUUUUCCCCUGAUAGUGCUAAGGGGGCCUGGAAGUUUGGACUGGGCAGAGCUCAACGCAGCGUGGCAAAGUGGCUGUGGCUAGACUGCCUCUCUGGAUUCCUCGUCACUCAGCAGGGCAUCACUGAGAAAAAUGCC [A67G U132A G139A]	0.5
UACGUAGGUGGUUUUCCCCUGAUAGUGCUAAGGGGGCCUGGAAGUUUGGACUGGGCAGAGCUCAACUCAGCGUGGCCAAGUGGCUGUGGCUAGACUGCCUCUCUGGACUCCUCGUCACUCAGCGGGGCGUCUCUGAGUGAAAUGCC [A67U A77C U108C A124G A129G A138U]	0
UACGUAGGUGGUUUUCCCCUGAUAGUGCUAAGGGGGCCUGGAAGUUUGGACUGGGCAGAGCUCAACUCAGCGUGGCGAAGUGGCUGUGGCUAGACUGCCUCUCUGGAUUCCUCGUCACUCAGCAGGGCAUCUCUGAGAGAGAUGCC [A67U A77G A141G]	0.29
UACGUAGGUGGUUUUCCCCUGAUAGUGCUAAGGGGGCCUGGAAGUUUGGACUGGGCAGAGCUCAACUCAGCGUGGCGAAGUGGCUGUGGCUAGACAGCCUCUCUGGAUUCCUCGUCACUCAGCAGGGCAUCUCUGAGAGAACUGCC [A67U A77G U96A A142C]	0
UACGUAGGUGGUUUUCCCCUGAUAGUGCUAAGGGGGCCUGGAAGUUUGGACUGGGCAGAGCUCAACUCAGCGUGGCGAAGUGGCUGUGGCUAGACUGCCGCUCUGGAUUCCUCGUCACUCAGCUGGGCAUCUCUGAGAGAAAUGCC [A67U A77G U100G A124U]	0

Variant	self-cleavage
UACGUAGGUGGUUUUCCCCUGAUAGUGCUAAGGGGGCCUGGAAGUUUGGACUGGGCAGAGCUCAACUCAGCGUGGCGAAGUGGCUGUGGCUAGACUGCCUCUCUGGAUUCCUCGCCACUCAGCAGGGCAUCUCUGAGAGAAAUGCC [A67U A77G U115C]	0
UACGUAGGUGGUUUUCCCCUGAUAGUGCUAAGGGGGCCUGGAAGUUUGGACUGGGCAGAGCUCAACUCAGCGUGGCAGAGUGGCUGUGGCUAGACUGCCUCUCCGGAUUCCUCGUCACUCAGCAGGGCAUCUCUGAGAGAAAUGCC [A67U A78G U104C]	0.04
UACGUAGGUGGUUUUCCCCUGAUAGUGCUAAGGGGGCCUGGAAGUUUGGACUGGGCAGAGCUCAACUCAGCGUGGCAAGGUGGCUGUGGCUAGACUGCCUCCCUGGAUUCCUCGUCACACAGCAGGGCAUCUCUGAGAGAAAUGCC [A67U A79G U102C U119A]	0.12
UACGUAGGUGGUUUUCCCCUGAUAGUGCUAAGGGGGCCUGGAAGUUUGGACUGGGCAGAGCUCAACUCAGCGUGGCAAAGUGGCUGUGGCUAGGCUGCCUCUCUGGAUUCCUCGGCACUCAGCAGGGCAUCUCUGAGAGGAAUGCC [A67U A94G U115G A140G]	0.34
UACGUAGGUGGUUUUCCCCUGAUAGUGCUAAGGGGGCCUGGAAGUUUGGACUGGGCAGAGCUCAACUCAGCGUGGCAAAGUGGCUGUGGCUAGUCUGCCUCUCUGGAUUCCUCGUCACUCAGCAGGGCAUCUCUAAGAGAAAUGCC [A67U A94U G135A]	0.06
UACGUAGGUGGUUUUCCCCUGAUAGUGCUAAGGGGGCCUGGAAGUUUGGACUGGGCAGAGCUCAACUCAGCGUGGCAAAGUGGCUGUGGCUAGACUGCCUCUCUGGAUUCCUCGUCACUCGGCAGGGCGUCUCUGAGAGAAAUGCC [A67U A121G A129G]	0.1
UACGUAGGUGGUUUUCCCCUGAUAGUGCUAAGGGGGCCUGGAAGUUUGGACUGGGCAGAGCUCAACUCAGCGUGGCAAAGUGGCUGUGGCUAGACUGCCUCUCUGGAUUCCUCGUCACUCAGCAGGGCGUCUCUGAGAGAAACGCC [A67U A129G U143C]	0.22
UACGUAGGUGGUUUUCCCCUGAUAGUGCUAAGGGGGCCUGGAAGUUUGGACUGGGCAGAGCUCAACUCAGCGUGGCAAAGUGGCUGUGGCUAGACUGACUCUCUGGAUUCCUCGUCGCUCAGCAGGGCAUCUCUGAGAGAAAUGCC [A67U C98A A117G]	0.04
UACGUAGGUGGUUUUCCCCUGAUAGUGCUAAGGGGGCCUGGAAGUUUGGACUGGGCAGAGCUCAACUCAGCGUGGCAAAGUGGCUGUGGCUAGACUGCCUUUCUGGAUUCCUCGACACUCAGCGGGGCAUCUCUGAGAGAAAUGCC [A67U C101U U115A A124G]	0.12
UACGUAGGUGGUUUUCCCCUGAUAGUGCUAAGGGGGCCUGGAAGUUUGGACUGGGCAGAGCUCAACUCAGCGUGGCAAAGUGACCGUGGCUAGACUGCCUCUCUGGAUUCCUCGUCACUCAGCAGGGCAUCUCUGGGAGAAAUGCC [A67U G83A U85C A136G]	0.02
UACGUAGGUGGUUUUCCCCUGAUAGUGCUAAGGGGGCCUGGAAGUUUGGACUGGGCAGAGCUCAACUCAGCGUGGCAAAGUGGCUGUGGCUAGACUGCCUCUCUGGAUUCCUCGUCACUCAACUGGGCAUCUCUGAGAGAAAUGCC [A67U G122A A124U]	0.1
UACGUAGGUGGUUUUCCCCUGAUAGUGCUAAGGGGGCCUGGAAGUUUGGACUGGGCAGAGCUCAACUCAGCGCGGCAAAGUGGCUGUGGCUAGACUGCCUCUCUGGAUUCCUCGUCACUCAGCAGGGCAUCUCUGGGAGAUAUGCC [A67U U73C A136G A141U]	0.12
UACGUAGGUGGUUUUCCCCUGAUAGUGCUAAGGGGGCCUGGAAGUUUGGACUGGGCAGAGCUCAACUCAGCGUGGCAAAGUGGCCGUGGCUAGACUGCCUCUCUGGAUUCCACGUCACUCAGCAGGGCAUCUCUGAGAGAAAUGCC [A67U U85C U112A]	0.08
UACGUAGGUGGUUUUCCCCUGAUAGUGCUAAGGGGGCCUGGAAGUUUGGACUGGGCAGAGCUCAACUCAGCGUGGCAAAGUGGCUGUGGCUAGACUGCCUCUCUGGACUCCUCGUCACUCAGCAGGGCAUCUCUGAGAGAAGUGCC [A67U U108C A142G]	0.13
UACGUAGGUGGUUUUCCCCUGAUAGUGCUAAGGGGGCCUGGAAGUUUGGACUGGGCAGAGCUCAACUCAGCGUGGCAAAGUGGCUGUGGCUAGACUGCCUCUCUGGAUCCCUCGUCACUCAGCAGGGCAUCUCUGAGAGAAGUGCC [A67U U109C A142G]	0.03
UACGUAGGUGGUUUUCCCCUGAUAGUGCUAAGGGGGCCUGGAAGUUUGGACUGGGCAGAGCUCAACUCAGCGUGGCAAAGUGGCUGUGGCUAGACUGCCUCUCUGGAUUCCUCGCCACUCAGCAGGGCAUCUCCGAGAGAAAUGCC [A67U U115C U134C]	0.26
UACGUAGGUGGUUUUCCCCUGAUAGUGCUAAGGGGGCCUGGAAGUUUGGACUGGGCAGAGCUCAACUCAGCGUGGCAAAGUGGCUGUGGCUAGACUGCCUCUCUGGAUUCCUCGUCACACAGCAGGGCAUCUCUGAGAGAAAAGCC [A67U U119A U143A]	0.06
UACGUAGGUGGUUUUCCCCUGAUAGUGCUAAGGGGGCCUGGAAGUUUGGACUGGGCAGAGCUCAACUCAGCGUGGCAAAGUGGCUGUGGCUAGACUGCCUCUCUGGAUUCCUCGUCACUCAGCAGGGCACCUCUGAGGGAAAUGCC [A67U U130C A138G]	0.3
UACGUAGGUGGUUUUCCCCUGAUAGUGCUAAGGGGGCCUGGAAGUUUGGACUGGGCAGAGCUCAACUCAGCGUGGCAAAGUGGCUGUGGCUAGACUGCCUCUCUGGAUUCCUCGUCACUCAGCAGGGCAUCCCUGGGAGAAAUGCC [A67U U132C A136G]	0.44
